Experimental data: paper PMC7819943, “Rice protein-binding microarrays: a tool to detect cis-acting elements near promoter regions in rice”
This is one part of the list.

Target: T1, OsWOX13 (Oryza sativa, UniProt Q5QMM3 1-267)
T1 sequence: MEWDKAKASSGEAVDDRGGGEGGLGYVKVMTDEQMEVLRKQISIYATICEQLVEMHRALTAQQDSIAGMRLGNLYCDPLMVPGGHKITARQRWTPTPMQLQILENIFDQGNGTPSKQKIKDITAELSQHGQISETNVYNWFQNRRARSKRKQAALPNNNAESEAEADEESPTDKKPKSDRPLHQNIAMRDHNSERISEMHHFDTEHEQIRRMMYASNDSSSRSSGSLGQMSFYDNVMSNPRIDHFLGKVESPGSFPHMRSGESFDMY
Assay: protein-binding microarray (RPBM); PBS, 2% BSA, 51.3 ng/ul salmon testes DNA, 50 uM zinc acetate, 200 nM TF, 25 C, 1 h; high values mean tight binding
Settings: protein: recombinant; tags: N-terminal polyhistidine and DsRed monomer fusion (pET32a); label: CyDye5-dUTP incorporated in the synthesized complementary strand; 3' TTTTT single-stranded linker to array surface; dsDNA, one strand shown
Summary of the method: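 Ni–NTA purification followed expression in E. coli BL21-CodonPlus of transcription factors fused N-terminally to a polyhistidine tag and DsRed. At 200 nM in PBS with 2% BSA, salmon testes DNA and 50 µM zinc acetate, the protein was incubated for 1 h at 25 °C with a custom Agilent array that had been primer-extended with Cy5-dUTP and blocked with 2% BSA. After washing, the array was read on an Axon 4000B scanner. The binding signal is per-feature fluorescence intensity in arbitrary units.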

Sequence	binding signal
AATGAATCTAGTCAATCCTGCTACTTTACATTGAGGCTGACGGAGTCACCTAGTGCAG	3630 fluorescence intensity (a.u.)
AGCTTCATTAGAAATTAATTAATTATTGTTATTTCTTTACCGGAGTCACCTAGTGCAG	34500 fluorescence intensity (a.u.)
TTGTTAATTTCAACGTTCCAAAGTAATGAATTCATGAGAACGGAGTCACCTAGTGCAG	4140 fluorescence intensity (a.u.)
TGCAGAATTAATGAATTATATTACTACAATCTTTTGCCTTCGGAGTCACCTAGTGCAG	3300 fluorescence intensity (a.u.)
CTTATAAATTATATAAGCCAATAAGCTGACTTAAAAGGATCGGAGTCACCTAGTGCAG	6950 fluorescence intensity (a.u.)
GGATTGATTAAGTTATGATCCAGAGTGAAATTTTAGCTATCGGAGTCACCTAGTGCAG	26600 fluorescence intensity (a.u.)
ATGTGATGTAATGTGATGGAAATTTGGAAGTTTGGAGAAACGGAGTCACCTAGTGCAG	16600 fluorescence intensity (a.u.)
GATGATGATAGGTGTCGGGTGAAAATCTGATCTGCACACTCGGAGTCACCTAGTGCAG	6380 fluorescence intensity (a.u.)
CCAAATTTTAGCATTAACAGTTCTCTATGCATGCCACATTCGGAGTCACCTAGTGCAG	7900 fluorescence intensity (a.u.)
GTCAAACCCAACTTAATTGTACAGTCAAACCGCCGTAATACGGAGTCACCTAGTGCAG	7140 fluorescence intensity (a.u.)
AGATCATTTTCTCATCAATCCAGCCATTCTATCTATACTACGGAGTCACCTAGTGCAG	3740 fluorescence intensity (a.u.)
GATCAATCATGCCGGACACGTGGCGCGTGGCCAGGTGCCACGGAGTCACCTAGTGCAG	3350 fluorescence intensity (a.u.)
TACTTAATTGGGAAACGTGACACTTCATGGTCCGTGAAGGCGGAGTCACCTAGTGCAG	35800 fluorescence intensity (a.u.)
ATTAATTAATGGTTCGTGCGTGCATGTCTATAAATATACTCGGAGTCACCTAGTGCAG	15600 fluorescence intensity (a.u.)
AACTTGCGAAAATTTGACTATCAATTAGCTGGGCGATTGACGGAGTCACCTAGTGCAG	19600 fluorescence intensity (a.u.)
AATTGATGAGTGTTGCTGCTTCGCTTGCACGAAAGTCGAGCGGAGTCACCTAGTGCAG	7830 fluorescence intensity (a.u.)
TAATTAAAAGATTTGTCTCGTAATTTACACGCAATCTATGCGGAGTCACCTAGTGCAG	6670 fluorescence intensity (a.u.)
AGTATATGATTTACTTACTTTGGCTCTGGAGTCCTTGGATCGGAGTCACCTAGTGCAG	12100 fluorescence intensity (a.u.)
AATAACTTCATCAATCTTATATAGACGTGTAATCTTAAAACGGAGTCACCTAGTGCAG	5670 fluorescence intensity (a.u.)
CAAATTGATAGATGTCGCCATATCGATACAATGCATCATACGGAGTCACCTAGTGCAG	43200 fluorescence intensity (a.u.)
ATCCAAATTACAAGATGATAATAATTATTTCTTGGTCTTTCGGAGTCACCTAGTGCAG	20100 fluorescence intensity (a.u.)

Sequence	binding signal
ATTTTCATCTATTTGCATTTAATAGGAGCTTCCCTGCACACGGAGTCACCTAGTGCAG	3900 fluorescence intensity (a.u.)
GACAAAGATTGAGATTTGATAAGAGAGGCCTAAACTGAACCGGAGTCACCTAGTGCAG	14300 fluorescence intensity (a.u.)
ATTTCAAATTTCTACTATCAAATTGGAATATTCACGTAAACGGAGTCACCTAGTGCAG	5110 fluorescence intensity (a.u.)
AGTGACTTGTTTGATTAGATTTGCCGGGACGGGAGGACAACGGAGTCACCTAGTGCAG	26900 fluorescence intensity (a.u.)
TGTGATTATTCACATCATATTCTCCTCTGTAGGGACGGGCCGGAGTCACCTAGTGCAG	26400 fluorescence intensity (a.u.)
TGGTAACCGGCTGATTGCCACCGGTAAATAGAGTGCCGCACGGAGTCACCTAGTGCAG	13500 fluorescence intensity (a.u.)
TGTAAATAGAATAAAATTAAATTTACAATTGGAGAGCCCTCGGAGTCACCTAGTGCAG	29900 fluorescence intensity (a.u.)
AGAATTTAAATTTGCTAATTGAAAACACTATCCCACATCACGGAGTCACCTAGTGCAG	41300 fluorescence intensity (a.u.)
AAAGGATGATTATGTTACCATGGAAGGATAATACTATGGACGGAGTCACCTAGTGCAG	12400 fluorescence intensity (a.u.)
ATAATTGCCCCTGGTTGGACGTGGTAAGTCAAGTCTATTTCGGAGTCACCTAGTGCAG	4310 fluorescence intensity (a.u.)
TTTAAACCATGATTACTGAATTATTGATATGTTCATGTTCCGGAGTCACCTAGTGCAG	30000 fluorescence intensity (a.u.)
AGCCTGATTGGCTTGGCCAAAGGTTCAAATCTTGAAAATACGGAGTCACCTAGTGCAG	16800 fluorescence intensity (a.u.)
GGGCGGGTGATCGCTGGGCGGGTGGGTGAGCGATCACCCACGGAGTCACCTAGTGCAG	3440 fluorescence intensity (a.u.)
CAAGCTAATTGCTAATGCTATATTGCCATGTTGATTTGAACGGAGTCACCTAGTGCAG	30700 fluorescence intensity (a.u.)
CCACGTTAAAATTAGAAGTTTGATTAAAATTAGAAGTTTGCGGAGTCACCTAGTGCAG	5720 fluorescence intensity (a.u.)
GTTAATTAGTCGTACATTAACGATTTTCTCGTTTTATGTGCGGAGTCACCTAGTGCAG	48800 fluorescence intensity (a.u.)
GATTAATTAGACTTAATAAATTTGTCTCACGGTTTACGGACGGAGTCACCTAGTGCAG	40500 fluorescence intensity (a.u.)
AAAACAAATTAAACAGCAACTACATAATGTATTGTCATAGCGGAGTCACCTAGTGCAG	6320 fluorescence intensity (a.u.)
AACTTATAAATTGATTTATAAGTCTAAATAAAGAGGCACCCGGAGTCACCTAGTGCAG	55800 fluorescence intensity (a.u.)
GATCCAGATTATAAATTTATACTATATATCAACTAATATACGGAGTCACCTAGTGCAG	8450 fluorescence intensity (a.u.)
ATGCAATGATTTAGAGAGGCAATGCACAATGATTTAGTTCCGGAGTCACCTAGTGCAG	10700 fluorescence intensity (a.u.)
